T1: Cyno CD98hc ECD Avi-His (cynomolgus macaque, UniProt P08195 105-529 (human entry))
T1 construct: biotinylated on the Avi tag where captured on streptavidin; also called Cyno CD98-AVI-His; Cyno CD98hc-AVI-His
T1 chain: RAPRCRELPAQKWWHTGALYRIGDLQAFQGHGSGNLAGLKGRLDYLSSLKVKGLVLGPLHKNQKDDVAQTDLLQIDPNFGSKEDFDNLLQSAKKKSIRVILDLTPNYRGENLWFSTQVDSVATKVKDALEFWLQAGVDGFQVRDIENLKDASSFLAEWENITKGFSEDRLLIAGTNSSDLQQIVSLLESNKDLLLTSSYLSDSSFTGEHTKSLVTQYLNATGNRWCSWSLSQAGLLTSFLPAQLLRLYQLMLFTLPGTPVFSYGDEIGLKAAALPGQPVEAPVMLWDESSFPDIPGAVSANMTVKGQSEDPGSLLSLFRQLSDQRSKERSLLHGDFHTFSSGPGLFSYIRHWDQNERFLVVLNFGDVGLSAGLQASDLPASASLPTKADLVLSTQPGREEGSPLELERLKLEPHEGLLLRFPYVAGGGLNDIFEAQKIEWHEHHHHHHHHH

T2: huCD98hc ECD Avi-His (human, UniProt P08195 105-529)
T2 construct: biotinylated on the Avi tag where captured on streptavidin; also called Human CD98-AVI-His; Human CD98hc-AVI-His
T2 sequence: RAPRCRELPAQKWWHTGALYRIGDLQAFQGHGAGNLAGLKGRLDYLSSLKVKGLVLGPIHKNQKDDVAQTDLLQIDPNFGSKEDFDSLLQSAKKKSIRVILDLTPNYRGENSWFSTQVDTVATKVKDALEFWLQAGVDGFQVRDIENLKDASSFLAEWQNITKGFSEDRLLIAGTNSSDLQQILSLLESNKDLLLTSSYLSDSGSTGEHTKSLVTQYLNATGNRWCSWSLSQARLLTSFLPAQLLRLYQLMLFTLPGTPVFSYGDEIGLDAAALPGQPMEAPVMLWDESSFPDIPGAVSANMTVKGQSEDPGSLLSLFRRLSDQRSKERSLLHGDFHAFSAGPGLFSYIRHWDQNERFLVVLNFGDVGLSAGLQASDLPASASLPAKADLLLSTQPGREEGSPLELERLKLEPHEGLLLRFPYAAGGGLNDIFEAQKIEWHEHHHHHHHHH


How the values were obtained:
Cyno CD98hc ECD Avi-His = target: T1, Cyno CD98hc ECD Avi-His; experiment: SPR, Carterra LSA, antibody immobilized
huCD98hc ECD Avi-His = target: T2, huCD98hc ECD Avi-His; experiment: SPR, Carterra LSA, antibody immobilized

Kd (Cyno CD98hc ECD Avi-His) [nM]	Kd (huCD98hc ECD Avi-His) [nM]	Binder
14	19	CD98hc.04.003 (2+1 bispecific antibody) (bispecific antibody) heavy 1: EVRLLESGGGLVQPGGSLRLSCAASGFTFSNYAMGWVRQAPGKGLEWVSAISGSGGSTYYADSVKGRFTTSRDDSKNALYLQMNSLRAEDTAVYYCARGGPGWYAADVWGQGTTVTVSSASTKGPSVFPLAPSSKSTSGGTAALGCLVKDYFPEPVTVSWNSGALTSGVHTFPAVLQSSGLYSLSSVVTVPSSSLGTQTYICNVNHKPSNTKVDKKV[here human IgG1 Fc with changes without letters]GGGGSGGGGSGGGGSQVQLQQSGAELAKPGASLKMSCKASGYTFTDYYIHWVKQRPGQDLEWIGYINPNSAYTDSNQKFKDKATLTADKSSNTAYMQLSSLTSEDSAVYYCARKGHFYAPSFAYWGQGTLVTVSAGGSEGKSSGSGSESKSTGGSDIQMTQTTSSLSASLGDRVTISCRASQDISNYLNWYQQKPDGTVKLLIYYTSRLHSGVPSRFSGSGSGADYSLTISNLQQEDIATYFCQQGDTLPYTFGGGTKLEIE heavy 2: EVRLLESGGGLVQPGGSLRLSCAASGFTFSNYAMGWVRQAPGKGLEWVSAISGSGGSTYYADSVKGRFTTSRDDSKNALYLQMNSLRAEDTAVYYCARGGPGWYAADVWGQGTTVTVSS[here human IgG1 constant region with changes without letters] light: DIQMTQSPSSLSASVGDRVTITCRASQSISSYLNWYQQKPGKAPKLLIYAASSLQSGVPSRFSGSGSGTDFTLTISSLQPEDFATYYCQQADLPAFAFGGGTKVEIKRTVAAPSVFIFPPSDEQLKSGTASVVCLLNNFYPREAKVQWKVDNALQSGNSQESVTEQDSKDSTYSLSSTLTLSKADYEKHKVYACEVTHQGLSSPVTKSFNRGEC
12	18	CD98hc.04.006 (2+1 bispecific antibody) (bispecific antibody) heavy 1: EVRLLESGGGLVQPGGSLRLSCAASGFTFSNYAMGWVRQAPGKGLEWVSAISGSGGSTYYADSVKGRFTTSRDDSKNALYLQMNSLRAEDTAVYYCARGGPGWYAADVWGQGTTVTVSSASTKGPSVFPLAPSSKSTSGGTAALGCLVKDYFPEPVTVSWNSGALTSGVHTFPAVLQSSGLYSLSSVVTVPSSSLGTQTYICNVNHKPSNTKVDKKV[here human IgG1 Fc with changes without letters]GGGGSGGGGSGGGGSEVNLVESGGDLVQPGGSLRLSCATSGFTFTDYFMSWVRQPPGKALEWLGFIRNKAYGYTTEYSASVKGRFTISRDNSQSIFYLQMNTLRLEDSATYYCARGPFISTAPFAYWGQGTLVTVSAGGSEGKSSGSGSESKSTGGSDIVMSQSPSSLAVSVGETVTMSCKSSQSLLYSSNQKNYLAWYQQKPGQSPKLLIYWGSTRESGVPDRFTGSGSGTDFTLTISSVKAEDLAVYYCQHYYGYPWTFGGGTKLEIK heavy 2: EVRLLESGGGLVQPGGSLRLSCAASGFTFSNYAMGWVRQAPGKGLEWVSAISGSGGSTYYADSVKGRFTTSRDDSKNALYLQMNSLRAEDTAVYYCARGGPGWYAADVWGQGTTVTVSS[here human IgG1 constant region with changes without letters] light: DIQMTQSPSSLSASVGDRVTITCRASQSISSYLNWYQQKPGKAPKLLIYAASSLQSGVPSRFSGSGSGTDFTLTISSLQPEDFATYYCQQADLPAFAFGGGTKVEIKRTVAAPSVFIFPPSDEQLKSGTASVVCLLNNFYPREAKVQWKVDNALQSGNSQESVTEQDSKDSTYSLSSTLTLSKADYEKHKVYACEVTHQGLSSPVTKSFNRGEC

Source: US20250270341A1 (Alector, published 2025)
